From PubChem BioAssay AID1508623 (National Center for Advancing Translational Sciences (NCATS), 2021)
Out of some 48,000 compounds screened, about 450 (0.94%) were called active. Another 19% or so got no clear call; they are omitted. Calls come from the whole dose curve; as a rule, active = well fitted inhibition curve with a large enough effect; inconclusive = small, poorly fitted or top-dose-only effect; inactive = no such curve, though single readings can be large or run the other way. The list shows a part of the results.

assay: Primary qHTS for Identification of Small Molecule Inhibitors of Huntingtin Promoter Activity; details: HEK293 HTT promoter firefly luciferase reporter (activity 0% = vehicle and -100% = no light), 24 h; series mostly up to 57.5 µM; activity change, negative = inhibition: at the top concentration; note: nearly all actives have a fitted effect of over 50% in size
In short: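 Firefly luciferase readout (Dual-Glo, 10 min RT) after 24 h, 37 °C compound exposure (final up to 57.5 uM) of HEK293 reporter cells cultured 24 h beforehand; PTC124 at 50 uM final as control inhibitor; activity scaled vehicle 0%, zero RLU -100%.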

Activity change, negative = inhibition, inactive:
COc1ccc(CCNc2ncnc3c2cnn3-c2ccc(F)cc2)cc1 -6.45%, Brc1ccc(CN2CCc3nc(Nc4ccccc4)ncc3C2)s1 -23.5%, COc1ccc(OC)c(CNC(=O)c2cc3c(=O)oc4ccc(C)cc4c3s2)c1 -3.08%, COc1ccc(N(Cc2cc3cc(OC)ccc3[nH]c2=O)C(=O)c2cccc(Cl)c2)cc1 1.28%, Cc1ncc(COP(=O)(O)O)c(C=O)c1O 11.9%, CCOc1ccc(C(=O)NCc2nnnn2-c2ccc(C)c(C)c2)cc1OCC 0.876%, Cc1cc(C)c(NC(=O)CCN2C(=O)c3ccccc3Sc3ncccc32)c(C)c1 -11.1%, Cc1nc2cc(C(=O)NCCC3=CCCCC3)ccc2n1-c1ccc(Br)cc1 -4.96%, Cc1ccc(-n2c(=O)c3ccc(C(=O)NCc4ccccc4Cl)cc3n(CC(=O)Nc3cccc(Cl)c3)c2=O)cc1 -11.6%, CCc1nn(CC(=O)NCC(C)c2ccccc2)c(=O)c2cc3occc3n12 (configuration not stated) 1.38%, COC(=O)c1cc2c(cc1NC(=O)c1cnn(-c3ccccc3)c1-n1cccc1)OCO2 10.8%, CCOC(=O)CNC(=O)CSc1cn(CC(=O)N2CCCCCC2)c2ccccc12 -2.52%, CCCCCNC(=O)c1ccc2c(c1)ncn2-c1cccc(C)c1 -23.8%, O=C1COc2ccc(-c3cc(-c4ccc(Cl)cc4)c4c(n3)-c3ccccc3OC4)cc2N1 -11.9%, Cc1cccc(C(=O)Nc2nnc(S(=O)(=O)N(C)Cc3ccc(Cl)cc3)s2)c1 -17.2%, COc1cccc(C2CC(=O)Nc3cc(OC)c(OC)c(OC)c32)c1OC(C)C (configuration not stated) 9.93%, Cc1cccc(Cn2c(=O)n(CC3CCC(C(=O)NC(C)C)CC3)c(=O)c3sccc32)c1 (configuration not stated) -7.59%, CSc1ccc(CCNC(=O)C2=C(C)C(=O)OC23CCCCC3)cc1 -16.6%, CCC1NC(=O)c2cc(S(N)(=O)=O)c(Cl)cc2N1 (configuration not stated) 4.57%, COc1ccccc1CN1CCC(CNS(=O)(=O)c2cc(-c3onc(C)c3C)ccc2OC)CC1 -13.4%, Cc1nn(-c2ccccc2)c(OC(=O)c2cccc(Br)c2)c1S(=O)(=O)c1ccccc1 -17.7%, COC(=O)c1ccc(OCC2c3cc(OC)c(OC)cc3CCN2C(=O)c2ccccc2C)cc1 (configuration not stated) -27.8%, CC(=O)Oc1ccc(C2(c3ccc(OC(C)=O)cc3)C(=O)Nc3ccccc32)cc1 -14.4%, Cc1ccc(-c2nnc(Nc3ccc(Br)cc3)c3ccccc23)cc1S(=O)(=O)NCC1CCCO1 (configuration not stated) -24.8%, Cc1nc(N2CCCC2)c2c(C(=O)N3CCN(c4ccc(F)cc4)CC3)c(C)oc2n1 -13%, Cc1cc(C)cc(NC(=O)c2cc(C)nc3c2c(C)nn3-c2ccccc2)c1 -7.84%, CCOc1ccc(C2CC(=O)NC(NC(=O)c3ccc(C)cc3)=N2)cc1 (configuration not stated) 31.8%, COc1ccc(NC(=O)Cn2c(=O)n(CCC(C)C)c(=O)c3cccnc32)cc1Cl -19.8%, COc1cccc(-c2nc(SCC(=O)NCC3CCCO3)c(-c3ccc(C)cc3)[nH]2)c1 (configuration not stated) -19.1%, CCOc1ccc(NC(=O)c2cc3c(C)nn(-c4ccccc4)c3s2)cc1 -29.2%, Cc1ccc(OCC(=O)N(Cc2ccc(Cl)cc2)Cc2ccco2)cc1C -22.8%, CC(C)NC(=O)C1CCC(Cn2c(=O)c3sccc3n(CC(=O)N3CCCC3)c2=O)CC1 (configuration not stated) 7.42%, COc1ccc(NC(=O)c2ccc3c(=O)n4nc(Nc5ccccc5C)sc4nc3c2)cc1Cl -7.4%, Cc1ccccc1Nc1cc(C(=O)NC2CCCC2)c2ccccc2n1 0%, CCN(C(=O)c1cc2c(=O)oc3ccccc3c2s1)c1ccc(C)c(C)c1 -13%, Cc1ccc(Cn2c(C(=O)O)c(CNC3CCCCC3)c3ccc(C)cc32)cc1 -12.2%, CCOc1ccccc1NC(=O)Cn1c(=O)n(Cc2nc(C)no2)c(=O)c2ccccc21 -8.59%, Cc1ccccc1C(=O)Nc1ccccc1OCc1cc(=O)n2ccccc2n1 2.14%, Clc1ccccc1CNc1ncnc2c1nc1n2CCCC1 -18.7%, Cc1cccc(NC(=O)C2CCCN(S(=O)(=O)c3ccc4c(c3)oc(=O)n4C)C2)c1C (configuration not stated) -7.1%, COC(=O)c1c(NC(=O)COc2ccc(C)cc2Br)sc2c1CCCC2 9.59% [at 11.5 µM], Cc1ccc(CNC(=O)CN(C)S(=O)(=O)c2ccc3c(c2)c(=O)n(C)c(=O)n3C)cc1 -0.0878%, CCc1ccccc1NC(=O)CN1C(=O)C2CCCN2c2ccc(S(=O)(=O)N(CC)CC)cc21 (configuration not stated) -5.55%, CCCCCCCCCCCCCC(=O)OC(C)C 16.8%, CC(O)(P(=O)(O)O)P(=O)(O)O 8.59%, Cc1c(CNC2CCC(C)CC2)c(C(=O)O)c(C)n1Cc1ccc(Cl)cc1 (configuration not stated) -17.5%, CCOC(=O)C(CC)Sc1ncnc2c1c(-c1ccccc1)cn2-c1ccc(OC)cc1 (configuration not stated) -19.4%, CCS(=O)(=O)N1CC(=O)N(c2ccc(Cl)cc2C)C(C)(C(=O)NC2CCCCC2)C1 (configuration not stated) 9.47%, O=C(CSc1nnc(-c2ccccc2)c(-c2ccccc2)n1)NCCc1ccccc1 -5.73%, Cc1ccc(C)c(N(C)C(=O)c2cc3c(s2)-c2ccccc2OC3)c1 -1.83%, CCn1c(=O)c2cc(C(=O)NCc3ccc(F)cc3Cl)sc2c2ccccc21 -4.2%, Cc1cc(C)c(OCC(=O)N(Cc2ccc(N(C)C)cc2)CC2CCCO2)c(C)c1 (configuration not stated) -29%, Cc1cc(=O)n(CC(=O)N2CCCc3ccccc32)c2c1c(C)nn2-c1cccc(F)c1 -11.7%, CCCN(C(=O)Cc1nc(-c2ccc(OC)cc2)no1)c1ccccc1C -24.9%, CCCCOC(=O)c1ccc(OC(=O)c2sc3ncn(Cc4cccc(F)c4)c(=O)c3c2C)cc1 1.36%, CCOC(=O)c1[nH]c(C)c(CCC(=O)Nc2ccccc2OCC)c1C -28.4%, CCC(C)NC(=O)Cn1c(=O)n(CCCCCC(=O)Nc2ccccc2)c(=O)c2sccc21 (configuration not stated) 21.6%, Cn1c(=O)c2c(nc(NCCCCO)n2Cc2ccccc2Cl)n(C)c1=O -15.4%, COc1ccc(C(=O)Nc2nnc(SCc3cc(=O)c4cccc(F)c4[nH]3)s2)cc1 16.5%, CN1C(=O)CC(C(=O)Nc2ccc(C(=O)O)cc2)SC1=Nc1ccc(Cl)cc1 (configuration not stated) -0.988%, Cc1ccc2c(=O)cc(C(=O)Nc3ccc(S(=O)(=O)N4CCCCC4C)cc3)oc2c1C (configuration not stated) 38.5%, CCN(CC)CCCNC(=O)Cn1ncc2c3ccccc3n(Cc3ccccc3)c2c1=O -1.9%, CCN(CC)c1ccc(NS(=O)(=O)c2cc(-c3onc(C)c3C)ccc2OC)c(C)c1 -15.5%, COc1cccc(-c2nnc(SCC(=O)N(C)c3ccccc3)o2)c1 22.4%, COc1cc2[nH]c(=O)[nH]c(=O)c2cc1OC 9.45%, CC(=O)c1ccc(NC(=O)C(C)n2nc(-c3ccccc3)ccc2=O)cc1 (configuration not stated) -12.7%, O=C(Cn1ncc2c3ccccc3n(Cc3cccc(Cl)c3)c2c1=O)NCCCc1ccccc1 -5.76%, COc1ccc(-c2c(C)nn3c(-c4ccccc4)cc(C)nc23)cc1OC -23.2%, Cc1cc(C)n(C(C)CC(=O)Nc2cccc(C#N)c2)n1 (configuration not stated) 1.05%, CCOc1ccc(-c2nn(-c3ccc(F)cc3)c3c2cnc2ccc(F)cc23)cc1 -5.12%, Cc1ccc2oc(-c3ccc(Cl)cc3)c(O)c(=O)c2c1 89.1%, Cc1cc(O)c(C(c2ccccc2)N2CCN(c3ccccc3)CC2)c(=O)n1Cc1ccco1 (configuration not stated) -2.18%, CCn1cc(C(=O)NCCc2ccc(OC)c(OC)c2)c(=O)c2cc(S(=O)(=O)N3CCOCC3)ccc21 27.7%, Cc1ccc(C(=O)Nc2nnc(S(=O)(=O)N(C)Cc3ccco3)s2)cc1 66.1%, CC1CCN(S(=O)(=O)c2ccc3c(ccn3CC(=O)NCc3ccccc3F)c2)CC1 -22.8%, Cc1cccc(-n2nnc(-c3nc(-c4ccccc4)no3)c2N)c1C 68.8%, Cc1ccc(C)c(NC(=O)CN2CCN(C3CCCCC3)C(=O)C2=O)c1 0.802%, COc1cccc(CNC(=O)c2ccc3c(c2)nc2n3CCOC2)c1OC 0.46%, Cc1cnc(C(=O)NCCc2ccc(S(=O)(=O)NC(=O)NC3CCCCC3)cc2)cn1, O=C(Nc1cccc(C(F)(F)F)c1)c1cc(-c2ccc(Cl)cc2)on1 -5.74%, Cc1cc(-c2ncc(CC(=O)Nc3ccc(-c4cnccn4)cn3)cc2C)ccn1 -20.8%, COCCCNC(=O)CSc1nc2cc3c(cc2c(=O)n1CCCCCC(=O)NCCc1ccc(OC)c(OC)c1)OCO3 -10.1%, COc1ccc2c(CNC3CCCC3)c(C(=O)O)n(Cc3ccccc3C)c2c1 4.02%, CCc1nn2c(=O)cc(COC(=O)c3cccc(NC(=O)c4ccccc4C)c3)nc2s1 -6.65%, Cc1cc(C)c2c(=O)cc(C(=O)Nc3sc4c(c3C#N)CCCC4)oc2c1 14.9%, Cc1ccccc1NC(=O)CN1C(=O)C2(SCC(=O)N2c2ccc(F)cc2)c2ccccc21 (configuration not stated) -9.23%, COc1ccc2c(c1)c(CC(=O)Nc1cccc(F)c1C)c(C)n2C(=O)c1ccc(Cl)cc1 -10%, COc1cccc(-n2ccn(CC(=O)Nc3ccccc3F)c(=O)c2=O)c1 -7.06%, COc1ccc(C2=C(C)C(N3CCC(C(=O)NCc4ccco4)CC3)=NS2(=O)=O)cc1 -18.3%, CCc1ccccc1NC(=O)Cn1cc(C(=O)c2ccc(Cl)cc2)c(=O)c2ccc(C)nc21 5.43%, CCOC(=O)c1[nH]c2ccccc2c1NC(=O)c1cc(OC)cc(OC)c1 -2.44%, COc1cccc(-c2ccnc3c(-c4ccccc4)c(C)nn23)c1 -2.26%, C[C@H]1[C@H](NC(=O)C(=NOC(C)(C)C(=O)O)c2csc(N)n2)C(=O)N1S(=O)(=O)O -2.09%, CCOc1ccc(NC(=O)N2CCC(CN3CCC(C)CC3)CC2)cc1 -12.9%, COc1ccc(-c2cc(C(=O)NCCc3ccc(Cl)cc3)[nH]n2)cc1 -9.03%, Cc1ccccc1-c1nc2c3c(-c4ccccc4)c(-c4ccccc4)oc3ncn2n1 -9.41%, Cc1cccc(N2CCN(C(=O)COCc3cc(-c4ccc5c(c4)OCO5)on3)CC2)c1C -5.06%
